Results reported in PubChem BioAssay AID1963576 (National Center for Advancing Translational Sciences (NCATS), 2024).
Out of some 46,000 compounds screened, about 60 (0.1%) were called active. Not shown: some 3% with an inconclusive outcome. Calls come from the whole dose curve; as a rule, active = well fitted inhibition curve with a large enough effect; inconclusive = small, poorly fitted or top-dose-only effect; inactive = no such curve, though single readings can be large or run the other way. The list shows a part of the results.

Assay: Primary qHTS assay for Inhibitors of ovarian cancer metastasis using an organotypic tumor microenvironment (TME) model.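 For activity change, negative = inhibition: plate controls were DMSO wells for no effect and tomatine positive control wells for full effect.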 Note: nearly all actives have a fitted effect of over 65% in size.
Conditions: SKOV3ip1-GFP adhesion/invasion on 3D omental model, fluorescence; series mostly up to 45.8 µM; activity change, negative = inhibition: at the top concentration
Summary of the method: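 Adhesion/invasion was scored as fixed GFP-labeled SKOV3ip1 cell counts (488/509 nm), normalized to DMSO and tomatine controls. Cancer cells in serum-free medium, with four compound doses (0.36-46 umol/L), sat 2 hr at RT then 16 hr at 37 C on a 48 hr fibroblast/mesothelial/ECM culture.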

Activity change, negative = inhibition, inactive:
CN(C)c1ccc(C(=O)NCCCCCCC(=O)NO)cc1 16.1%
O=C(Cn1cc(S(=O)(=O)Cc2ccc(F)cc2)c2ccccc21)NCCc1ccccc1 -0.728%
Cc1ccc(NC(=O)c2ccc(NC(=O)N3CCSc4ncccc43)cc2)cc1Cl 4.03%
CCc1ccc(-n2nc3cc(C)c(NC(=O)c4cc(Cl)ccc4OC)cc3n2)cc1 -9.16%
CCC(C)NC(=O)Cn1c(=O)n(Cc2ccc(C(=O)NCCCOC)cc2)c(=O)c2ccccc21 (configuration not stated) 0.919%
Cc1ccc(NC(=O)c2c(N3CCCC3=O)c3cc(C)ccc3n2C)c(C)c1 -3.06%
COc1ccc(OCCn2c(C3CC(=O)N(c4ccc(F)cc4)C3)nc3ccccc32)cc1 (configuration not stated) -5.33%
COc1ccc(Nc2cc(C(=O)NCCc3ccccc3)c3ccccc3n2)cc1OC 0.646%
CSc1ccc(CNCc2c(C(=O)O)c(C)n(Cc3ccc(F)cc3Cl)c2C)cc1 1.51%
Cc1ccc(Cl)c2sc(N3CCN(C(=O)C4CC4)CC3)nc12 3.68%
CC(C)c1ccc(NC(=O)CSc2ncc3c(n2)-c2ccccc2N(C)S3(=O)=O)cc1 -8.14%
COc1cccc(N2CCN(C(=O)C3CCCN(S(=O)(=O)c4ccc(Br)s4)C3)CC2)c1 (configuration not stated) -1.44%
Cc1ccccc1Cn1cc(S(=O)(=O)c2ccc(Cl)cc2)c(=O)c2cc3c(cc21)OCO3 11.6%
Cc1ccccc1CNC(=O)c1c(C)oc2c1C1=NCCN1C=N2 -9.23%
Cc1ccc2oc(=O)c3cnn(CC(=O)NCc4ccccc4Cl)c3c2c1 10.8%
O=C(Cn1c(=O)n2nc(-c3ccccc3)nc2c2ccccc21)Nc1ccccc1C(F)(F)F -1.19%
Nc1ncc(S(=O)(=O)NCc2cccc(Cl)c2)cn1 -3.66%
O=C1[C@@H]2CSC(c3ccc(F)cc3)N2C(=O)N1c1ccc(Cl)cc1 (some centres not stated) -7.69%
COc1ccc(CNC(=O)c2cccc(N3CCCS3(=O)=O)c2)cc1 0.461%
COc1ccc(S(=O)(=O)N(Cc2nc(-c3ccc(C)cc3)no2)C2CCCCC2)cc1 -6.67%
Cc1ccc(-c2nc(CCNC(=O)C(=O)Nc3ccc(C)c(C)c3)cs2)cc1 -6.64%
Cc1ccc(-c2nc3scc(CCNC(=O)c4cccc(Br)c4)n3n2)cc1 -16.3%
CS(=O)(=O)c1ccc2nc(NC(=O)CS(=O)(=O)c3ccc(Cl)cc3)sc2c1 -3%
CCOC(=O)CNC(=O)Nc1cc(C(=O)NCc2cccc(F)c2)ccc1N1CCCC1 2.29%
CC(=O)c1cc(-c2ccc(F)cc2)n(CCC(=O)NCc2ccccc2C)c1C -6.43%
COc1ccc(NC(=O)c2ccc3nc(CCc4ccccc4)oc3c2)cc1 -8.6%
CCCCC12CN3CC(C)(CN(C1)C3c1cc(Br)ccc1O)C2=O (configuration not stated) 4.12%
COc1cc2c(-c3ccccc3C)nc3c(c(C)nn3-c3ccccc3)c2cc1OC -26.5%
O=C(Nc1ccc2nc(SCC(=O)N3CCCC3)sc2c1)c1ccccc1 -8.03%
O=C(Cn1c(=O)n(Cc2ccco2)c(=O)c2cccnc21)Nc1ccccc1F 0.825%
O=C(NCC(c1cccnc1)N1CCc2ccccc21)c1ccccc1Br (configuration not stated) -1.94%
Cc1ccc(NC2=C(c3ccc(C(F)(F)F)cc3)C(=O)c3ccccc32)cc1F 4.5%
Cc1ccc(N2CCN(c3nc4ccc(C)cc4n4nnnc34)CC2)c(C)c1 -11.1%
COc1cc(C(=O)Nc2ccc3nn(-c4ccc(F)cc4)nc3c2)cc(OC)c1OC -1.57%
CCOC(=O)c1noc2nc(C)n(CC(=O)Nc3cc(Cl)ccc3OC)c(=O)c12 -3.94%
CCCCn1c(=O)n(-c2ccc(Br)cc2F)c(=O)c2c3c(sc21)CN(C(C)=O)CC3 -7.19%
COc1ccc(CNC(=O)Cn2c(SCC(=O)N(C)c3ccccc3)nc3ccccc32)cc1 -0.432%
Cc1ccc(OCC(=O)Nc2c(C(=O)c3ccccc3)oc3ccccc23)cc1C 4.3%
Oc1c(C(c2ccccc2)N2CCN(Cc3ccccc3)CC2)sc2nc(-c3ccco3)nn12 (configuration not stated) 1.08%
Cc1ccc(CNC(=O)C2CCN(S(=O)(=O)N3CCC(C)CC3)CC2)cc1 -5.76%
CC(=O)Nc1nnc(SCc2cc(=O)c3cc(C)ccc3[nH]2)s1 -9.28%
COc1cc(Cl)c(C)cc1NC(=O)CCc1nc2cccnc2n1-c1ccccc1 9.87%
Nc1ncn([C@@H]2O[C@H](CO)[C@@H](O)[C@@H]2O)c(=O)n1 -1.9%
COc1ccc(-c2nnc(SCC(=O)Nc3cccc(F)c3)s2)cc1 3.43%
CCCCNC(=O)C1CCN(S(=O)(=O)c2cc(Br)cc3c2N(C(=O)CC)CC3)CC1 -4.99%
CCn1cc(C(=O)O)c(=O)c2ccc(C)nc21 -3.63%
Cc1ccc(NCc2cccn2-c2nnc(N3CCCCCC3)s2)cc1 46.2%
O=C(NCCCc1ccccc1)c1nn(-c2ccccc2F)nc1CO -8.11%
CC(=O)c1ccc(NC(=O)C2CCC(CNS(=O)(=O)c3ccc(Br)s3)CC2)cc1 (configuration not stated) 0.821%
O=C(NCCc1ccccc1)c1ccc(CSc2nc3cccnc3n2Cc2ccc(F)cc2)cc1 -9.08%
COC(=O)c1ccc(NC(=O)C2(S(=O)(=O)c3ccc(C)cc3)CC2)cc1 1.14%
Cc1ccc(CN2CCCn3nc(C(=O)NCCC(C)C)cc3C2=O)cc1 27.1%
COC(=O)c1sc(-c2ccccc2)cc1NC(=O)c1cccc(F)c1 -6.04%
COc1ccccc1-n1cc(-c2ccc(C)cc2)nc1S(=O)(=O)CC(=O)Nc1ccccc1C(F)(F)F -20%
COc1ccc(CNCCSc2nnnn2-c2ccccc2)cc1 -2.19%
COc1ccc(CC(=O)Nc2ccc3nc(Nc4cccc(Cl)c4)cc(C)c3c2)cc1OC -7.77%
Cc1ccc(S(=O)(=O)N2CCC(Oc3ccc(-n4cnnn4)cc3)CC2)cc1 -5.85%
COc1ccccc1Nc1c2c(nc3ccc(NC(=O)/C=C/c4cccc(OC)c4OC)cc13)CCCC2 -14.3%
COc1ccc2nc(N(Cc3cccnc3)C(=O)CCc3ccccc3)sc2c1 -18.1%
COc1cc(OC)c(NC(c2nnc(-c3ccccc3)o2)c2ccc(F)cc2Cl)cc1Cl (configuration not stated) -5.55%
CCOc1ccccc1-c1nc(-c2ccc(-c3ccccc3)nc2OCC)no1 -1.7%
COc1ccccc1NC(=O)CSc1nnc(-c2cccc(Cl)c2)o1 4.3%
CCn1cc(S(=O)(=O)c2cc(C)cc(C)c2)c(=O)c2cc(F)c(N3CCOCC3)cc21 1.94%
COc1ccc(CCNC(=O)c2ccc3c(c2)N(Cc2cccc(C)c2)C(=O)c2ccccc2S3(=O)=O)cc1OC -2.83%
CCc1ccc(-n2nnc(-c3nc(-c4ccccc4)no3)c2C)cc1 -4.4%
CCN(C(=O)Cn1c(C(=O)OC)cc2oc3ccccc3c21)c1cccc(C)c1 2.78%
Cc1ccc(CCNC(=O)CCc2cn(Cc3ccccc3C)c3ccccc23)cc1 9.8%
CCOC(=O)c1c(Oc2ccc(C(=O)OC)cc2)nnc(-c2ccccc2)c1-c1ccccc1 -11.3%
Cc1ccc(C)c(N(C)C(=O)c2cn(C)c(=O)c3ccccc23)c1 -1.26%
Cc1cc(C)cc(-n2cnc3cc(C(=O)NCCc4ccccc4)ccc32)c1 -16.8%
COc1cc(CN(C(=O)c2cc3ccccc3oc2=O)C2CCS(=O)(=O)C2)cc(OC)c1OC (configuration not stated) 19.2%
Brc1csc(CN2CCc3nc(Nc4ccccc4)ncc3C2)c1 3.65%
O=C(c1cccc(Cl)c1)n1nc(-c2ccco2)nc1NCc1cccs1 -10.5%

outcome, inactive:
CCCN(C(=O)Cn1ncc2c(=O)oc3ccccc3c21)c1cccc(C)c1
CCCCOC(=O)c1ccc(NS(=O)(=O)c2c(C)nc3scc(C)n3c2=O)cc1
COc1ccccc1Nc1cc(C)nc2nc(-c3ccccc3)nn12
Cc1ccc(CNC(=O)Cn2ncc3c(C)n(Cc4ccc(Cl)cc4)c(C)c3c2=O)cc1
COC(=O)c1c(NC(=O)c2ccc(S(=O)(=O)N3CCCC(C)C3)cc2)sc2c1CCN(C(C)C)C2 (configuration not stated)
Cc1c(NC(=O)c2nc3ccccc3n(C)c2=O)cccc1[N+](=O)[O-]
Cc1ccc(C)n1-c1nnc(N2CCC(C(=O)NCc3ccccc3Cl)CC2)s1
CCOc1cc(C(=O)Nc2ccc(-c3nc4cc(C)ccc4o3)cc2)cc(OCC)c1OCC
CCCN(CCC)C(=O)Cn1c(=O)n(-c2cccc(C(F)(F)F)c2)c(=O)c2c(C)c(C)sc21
COc1ccccc1CNC(=O)C(=O)NCC(c1cccs1)S(=O)(=O)c1ccc(F)cc1 (configuration not stated)
CC1=C(C(=O)OCC2CCCCC2)C(c2ccc(F)cc2F)CC(=O)N1 (configuration not stated)
Cc1csc2nc(COC(=O)c3ccc(NC(=O)COc4ccccc4F)cc3)cc(=O)n12
COc1ccc(NC(=O)Cn2c(SCc3cccc(Cl)c3)nc3ccncc32)c(OC)c1OC
CC1=C(C(=O)Nc2ccccc2)C(c2ccccc2)n2nc(-c3ccco3)nc2N1 (configuration not stated)
Cn1c(=O)cc(SCC(=O)NCc2ccc(F)cc2)c2ccc(Cl)cc21
CCOc1ccccc1NC(=O)CCn1c(-c2ccc(OC)cc2)cc(C(C)=O)c1C
CCOc1ccccc1NC(=O)C(C)Sc1cc(-c2ccccc2)nc(C)n1 (configuration not stated)
Cc1nc(-c2ccc(C)c(N3CCN(C(=O)Nc4ccccc4C(F)(F)F)CC3)c2)no1
O=C(NC(=O)c1cccc(F)c1)Nc1ccc(-c2cc(C(F)(F)F)nn2-c2ccccc2)cc1
Cc1ccc(C(=O)Nc2nnc(S(=O)(=O)N3CCOCC3)s2)cc1
O=C(NCc1ccc(F)cc1)C1CCN(C(=O)c2ccc(-n3ccc4ccccc43)s2)CC1
Cc1cccc(Cn2c(SCc3ccc(C(=O)N4CCCCCC4)cc3)nc3ccncc32)c1
Cc1cccc(NC(=O)c2cc(S(=O)(=O)N3CCCCC3)c[nH]2)c1C
O=C(CNC(=O)c1ccccc1Cl)OCc1cc(=O)n2ccsc2n1
